The supplement of paper PMC4604168 (melanoma cell lines)
The list shows a part of the results. Many values rest on one well or one pass, so single values are uncertain.

Legend:
Test in all cases: cell count relative to DMSO control; melanoma cells; higher = more viable cells
Conditions in all cases: library dose: low library concentration; 72 h
MZ2-MEL = system: MZ2-MEL
MeWo = system: MeWo
RPMI7951 = system: RPMI7951
RVH-421 = system: RVH-421
SkMel28 = system: SkMel28
SkMel2 = system: SkMel2
SkMel30 = system: SkMel30
SkMel5 = system: SkMel5
UACC257 = system: UACC257
UACC62 = system: UACC62
WM115 = system: WM115
WM1716 = system: WM1716
WM1745 = system: WM1745
WM3526 = system: WM3526
WM3619 = system: WM3619
WM451Lu = system: WM451Lu
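Also: cell number obtained by counting DAPI-stained nuclei in high-throughput microscope images with image analysis software, screen run in 1,536-well plates.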

SMILES | cell count (MZ2-MEL) [%] | cell count (MeWo) [%] | cell count (RPMI7951) [%] | cell count (RVH-421) [%] | cell count (SkMel28) [%] | cell count (SkMel2) [%] | cell count (SkMel30) [%] | cell count (SkMel5) [%] | cell count (UACC257) [%] | cell count (UACC62) [%] | cell count (WM115) [%] | cell count (WM1716) [%] | cell count (WM1745) [%] | cell count (WM3526) [%] | cell count (WM3619) [%] | cell count (WM451Lu) [%]
C[C@@H](Oc1cc(-c2cnn(C3CCNCC3)c2)cnc1N)c1c(Cl)ccc(F)c1Cl [Crizotinib] + CC(C)(C)c1cnc(CSc2cnc(NC(=O)C3CCNCC3)s2)o1 [SNS-032] (first compound 0.2 µM, partner dose 0.01 µM) | 100 | 93.6 | 110 | 115 | 84.2 | 94 | 83 | 95.1 | 61 | 80.6 | 103 | 81.1 | 90 | 104 | 101 | 88.8
C=CCNC1=C2C[C@@H](C)C[C@H](OC)[C@H](O)[C@@H](C)/C=C(\C)[C@H](OC(N)=O)[C@@H](OC)/C=C\C=C(/C)C(=O)NC(=CC1=O)C2=O [Tanespimycin] + Oc1cc(-c2nc(-c3ccccc3)[nH]c2-c2ccncc2)ccc1Cl [L779450] (first compound 0.002 µM, partner dose 0.2 µM) | 85 | 99.1 | 88.6 | 77 | 88.2 | 102 | 96.2 | 102 | 102 | 85.4 | 81.2 | 112 | 77.2 | 85.9 | 92.7 | 97.1
CN1CCN(c2ccc3nc(-c4c(N)c5c(F)cccc5[nH]c4=O)[nH]c3c2)CC1 [Dovitinib] + O=C(O)C(=O)Nc1sc2c(c1C(=O)O)CCNC2 [TCS401] (first compound 0.1 µM, partner dose 1.66667 µM) | 91.7 | 108 | 100 | 116 | 85.2 | 106 | 98.3 | 98.6 | 82.2 | 89.2 | 95.3 | 105 | 85.8 | 106 | 97.3 | 101
C[C@@H](Oc1cc(-c2cnn(C3CCNCC3)c2)cnc1N)c1c(Cl)ccc(F)c1Cl [Crizotinib] + N#Cc1c(O)c2c(-c3ccc(-c4ccccc4O)cc3)csc2[nH]c1=O [A769662] (first compound 0.2 µM, partner dose 2 µM) | 90.9 | 88.3 | 123 | 105 | 105 | 96 | 115 | 102 | 95.4 | 104 | 100 | 103 | 96.8 | 89.9 | 113 | 114
C[C@@H](Oc1cc(-c2cnn(C3CCNCC3)c2)cnc1N)c1c(Cl)ccc(F)c1Cl [Crizotinib] + CO[C@@H]1[C@H](N(C)C(=O)c2ccccc2)C[C@H]2O[C@]1(C)n1c3ccccc3c3c4c(c5c6ccccc6n2c5c31)C(=O)NC4 [Midostaurin] (first compound 0.2 µM, partner dose 0.08 µM) | 95.7 | 85.7 | 82.6 | 77.8 | 101 | 78.8 | 113 | 83.2 | 70.6 | 90.4 | 68 | 69.1 | 81.6 | 90.5 | 87.4 | 109
CN1CCN(c2ccc3nc(-c4c(N)c5c(F)cccc5[nH]c4=O)[nH]c3c2)CC1 [Dovitinib] + Cn1cncc1[C@@](N)(c1ccc(Cl)cc1)c1ccc2c(c1)c(-c1cccc(Cl)c1)cc(=O)n2C [tipifarnib] (first compound 0.1 µM, partner dose 0.01 µM) | 83.5 | 86.6 | 95.3 | 81.8 | 67.1 | 85.4 | 76.8 | 101 | 75.9 | 65.2 | 83.4 | 64.4 | 81.6 | 65.3 | 108 | 78.6
C[C@@H](Oc1cc(-c2cnn(C3CCNCC3)c2)cnc1N)c1c(Cl)ccc(F)c1Cl [Crizotinib] + O=C(CCCCCCC(=O)Nc1ccccc1)NO [vorinostat] (first compound 0.2 µM, partner dose 0.08 µM) | 104 | 104 | 109 | 97.9 | 92.4 | 112 | 103 | 97.1 | 87.4 | 89 | 106 | 117 | 93.6 | 90.5 | 129 | 80.8
CNC(=O)c1cc(Oc2ccc(NC(=O)Nc3ccc(Cl)c(C(F)(F)F)c3)cc2)ccn1 [sorafenib] + CN(C)S(=O)(=O)c1ccc2c(c1)/C(=C/c1cc3c([nH]1)CCCC3)C(=O)N2 [SU6656] (first compound 0.4 µM, partner dose 0.4 µM) | 104 | 93.8 | 112 | 96 | 74.3 | 95.1 | 98 | 88.6 | 63.8 | 90.4 | 80.8 | 126 | 105 | 90.4 | 118 | 90.5
CS(=O)(=O)CCNCc1ccc(-c2ccc3ncnc(Nc4ccc(OCc5cccc(F)c5)c(Cl)c4)c3c2)o1 [lapatinib] + CCc1ccc(CCOc2ccc(CC3SC(=O)NC3=O)cc2)nc1 [pioglitazone] (first compound 0.8 µM, partner dose 2 µM) | 98 | 86.5 | 86.9 | 82.1 | 99.3 | 88.5 | 83.3 | 95.9 | 78.4 | 96.1 | 103 | 97.6 | 83.3 | 86.2 | 82.5 | 86.3
C=CCNC1=C2C[C@@H](C)C[C@H](OC)[C@H](O)[C@@H](C)/C=C(\C)[C@H](OC(N)=O)[C@@H](OC)/C=C\C=C(/C)C(=O)NC(=CC1=O)C2=O [Tanespimycin] + C[C@@H]1CCN(C(=O)CC#N)C[C@@H]1N(C)c1ncnc2[nH]ccc12 [CP690550] (first compound 0.002 µM, partner dose 1 µM) | 107 | 102 | 104 | 126 | 113 | 97.7 | 82.1 | 93.3 | 110 | 95.3 | 93.7 | 101 | 78.8 | 95.3 | 93.4 | 98.8
CN1CCN(c2ccc3nc(-c4c(N)c5c(F)cccc5[nH]c4=O)[nH]c3c2)CC1 [Dovitinib] + COc1ccc(-c2ccc3c(N4CCOCC4)nc(N4C[C@@H](C)O[C@@H](C)C4)nc3n2)cc1CO [KU0063794] (first compound 0.1 µM, partner dose 0.02 µM) | 97.1 | 101 | 106 | 78.8 | 98.4 | 100 | 84 | 109 | 114 | 98.8 | 104 | 115 | 98.7 | 120 | 119 | 102
CS(=O)(=O)CCNCc1ccc(-c2ccc3ncnc(Nc4ccc(OCc5cccc(F)c5)c(Cl)c4)c3c2)o1 [lapatinib] + OCCn1cc(-c2cnc3nnn(Cc4ccc5ncccc5c4)c3n2)cn1 [PF04217903] (first compound 0.8 µM, partner dose 1 µM) | 97.7 | 101 | 103 | 101 | 93.7 | 105 | 97.9 | 93.8 | 78.2 | 91.2 | 104 | 102 | 81 | 89.3 | 113 | 103
C[C@@H](Oc1cc(-c2cnn(C3CCNCC3)c2)cnc1N)c1c(Cl)ccc(F)c1Cl [Crizotinib] + CN(NC(=O)CC(=O)NN(C)C(=S)c1ccccc1)C(=S)c1ccccc1 [STA4783] (first compound 0.2 µM, partner dose 0.006 µM) | 104 | 92.6 | 111 | 83.5 | 98.2 | 90.6 | 103 | 96.2 | 89.3 | 71.6 | 68.6 | 74.6 | 76.1 | 120 | 86.1 | 115
CS(=O)(=O)CCNCc1ccc(-c2ccc3ncnc(Nc4ccc(OCc5cccc(F)c5)c(Cl)c4)c3c2)o1 [lapatinib] + Cn1cncc1[C@@](N)(c1ccc(Cl)cc1)c1ccc2c(c1)c(-c1cccc(Cl)c1)cc(=O)n2C [tipifarnib] (first compound 0.8 µM, partner dose 0.01 µM) | 109 | 89.3 | 92.9 | 79.9 | 84.9 | 79.4 | 105 | 110 | 68.2 | 75.5 | 90.4 | 86.4 | 107 | 94.4 | 117 | 85.9
C=CCNC1=C2C[C@@H](C)C[C@H](OC)[C@H](O)[C@@H](C)/C=C(\C)[C@H](OC(N)=O)[C@@H](OC)/C=C\C=C(/C)C(=O)NC(=CC1=O)C2=O [Tanespimycin] + COC(=O)c1sccc1S(=O)(=O)Nc1ccc(Nc2ccccc2)cc1OC [GSK0660] (first compound 0.002 µM, partner dose 1 µM) | 98.6 | 112 | 91.9 | 131 | 105 | 92.6 | 95.9 | 89.6 | 102 | 89.4 | 103 | 101 | 105 | 113 | 83.5 | 102
CN1CCN(c2ccc3nc(-c4c(N)c5c(F)cccc5[nH]c4=O)[nH]c3c2)CC1 [Dovitinib] + COc1ccc2c(c1)CCC1C2CCC2(C)C(NCCCCCCN3C(=O)C=CC3=O)CCC12 [U73122] (first compound 0.1 µM, partner dose 0.4 µM) | 99.6 | 93.3 | 101 | 91.7 | 110 | 106 | 121 | 91.1 | 87.1 | 103 | 101 | 86.8 | 104 | 112 | 111 | 78.9
CS(=O)(=O)CCNCc1ccc(-c2ccc3ncnc(Nc4ccc(OCc5cccc(F)c5)c(Cl)c4)c3c2)o1 [lapatinib] + O=S(=O)(c1ccccc1)N(CC(F)(F)F)c1ccc(C(O)(C(F)(F)F)C(F)(F)F)cc1 [T0901317] (first compound 0.8 µM, partner dose 1.4 µM) | 99.6 | 90.2 | 98.7 | 127 | 84.6 | 101 | 95.3 | 65.9 | 92.2 | 90.2 | 112 | 88.3 | 92.3 | 90.8 | 89.7 | 100
